No constants are given. Whether binding was seen depends on the method and setting. For some assays here: In cells and extracts the contact can be indirect. Some binding calls cover weakened binding; strength is not graded here. For some assays here: Where a sequence is shown, tags or fusion partners need not be part of it.
T1: RIG-I (retinoic-acid-inducible gene-I), full-length, yeast two-hybrid bait (UniProt O95786)
T1 sequence: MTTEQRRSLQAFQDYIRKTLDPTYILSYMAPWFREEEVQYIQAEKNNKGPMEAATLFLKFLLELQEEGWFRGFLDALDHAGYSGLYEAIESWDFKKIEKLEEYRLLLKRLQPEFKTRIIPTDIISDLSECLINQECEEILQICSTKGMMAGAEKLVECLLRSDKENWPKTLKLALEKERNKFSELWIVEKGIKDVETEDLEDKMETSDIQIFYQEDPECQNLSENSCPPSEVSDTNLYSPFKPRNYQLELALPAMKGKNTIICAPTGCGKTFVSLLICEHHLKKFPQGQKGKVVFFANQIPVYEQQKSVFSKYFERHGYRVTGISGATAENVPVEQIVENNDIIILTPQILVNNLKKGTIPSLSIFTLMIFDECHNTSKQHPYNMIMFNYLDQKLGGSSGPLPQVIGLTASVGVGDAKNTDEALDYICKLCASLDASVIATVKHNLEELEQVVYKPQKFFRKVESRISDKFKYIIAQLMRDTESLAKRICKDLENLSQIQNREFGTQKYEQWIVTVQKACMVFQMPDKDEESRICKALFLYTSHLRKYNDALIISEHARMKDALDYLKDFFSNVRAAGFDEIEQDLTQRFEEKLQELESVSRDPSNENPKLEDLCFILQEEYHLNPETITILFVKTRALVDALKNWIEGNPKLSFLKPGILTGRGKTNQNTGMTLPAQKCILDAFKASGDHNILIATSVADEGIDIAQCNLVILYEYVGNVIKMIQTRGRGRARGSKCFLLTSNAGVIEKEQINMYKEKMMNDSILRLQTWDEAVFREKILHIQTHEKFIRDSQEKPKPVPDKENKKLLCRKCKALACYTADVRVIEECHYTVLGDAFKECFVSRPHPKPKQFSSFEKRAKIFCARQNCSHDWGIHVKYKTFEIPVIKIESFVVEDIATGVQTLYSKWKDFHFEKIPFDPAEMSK

Amino acid sequences for entries named in this document (tags omitted).
UniProt Q14258: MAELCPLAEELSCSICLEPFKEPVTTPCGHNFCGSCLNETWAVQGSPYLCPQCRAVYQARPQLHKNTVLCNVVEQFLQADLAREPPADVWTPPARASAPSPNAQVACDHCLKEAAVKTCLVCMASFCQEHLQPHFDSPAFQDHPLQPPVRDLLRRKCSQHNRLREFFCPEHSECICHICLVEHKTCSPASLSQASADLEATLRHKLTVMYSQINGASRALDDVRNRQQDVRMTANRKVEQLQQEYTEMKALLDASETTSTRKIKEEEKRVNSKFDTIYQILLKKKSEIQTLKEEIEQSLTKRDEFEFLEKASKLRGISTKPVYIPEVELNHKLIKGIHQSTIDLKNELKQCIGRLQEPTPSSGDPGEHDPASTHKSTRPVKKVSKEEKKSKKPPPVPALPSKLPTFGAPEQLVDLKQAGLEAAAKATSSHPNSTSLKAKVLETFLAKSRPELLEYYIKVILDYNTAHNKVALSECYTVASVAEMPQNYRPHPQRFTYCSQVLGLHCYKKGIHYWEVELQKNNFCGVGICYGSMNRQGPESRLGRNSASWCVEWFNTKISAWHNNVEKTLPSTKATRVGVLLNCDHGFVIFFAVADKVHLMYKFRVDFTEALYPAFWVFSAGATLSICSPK
UniProt Q9C035: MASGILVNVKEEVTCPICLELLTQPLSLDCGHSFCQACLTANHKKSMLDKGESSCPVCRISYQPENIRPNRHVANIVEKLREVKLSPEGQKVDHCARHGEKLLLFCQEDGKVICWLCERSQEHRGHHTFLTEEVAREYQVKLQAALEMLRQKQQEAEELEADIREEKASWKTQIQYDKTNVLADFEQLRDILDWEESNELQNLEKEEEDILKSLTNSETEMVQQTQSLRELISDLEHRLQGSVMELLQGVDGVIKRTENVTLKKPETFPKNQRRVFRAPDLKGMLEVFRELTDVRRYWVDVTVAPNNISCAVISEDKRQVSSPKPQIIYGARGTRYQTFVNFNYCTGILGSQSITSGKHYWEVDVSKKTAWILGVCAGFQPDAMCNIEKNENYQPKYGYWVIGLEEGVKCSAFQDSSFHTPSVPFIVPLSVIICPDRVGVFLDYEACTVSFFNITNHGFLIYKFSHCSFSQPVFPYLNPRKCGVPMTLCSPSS

T2: Flag-tagged full-length REUL (human) (UniProt Q8IUD6)
T2 sequence: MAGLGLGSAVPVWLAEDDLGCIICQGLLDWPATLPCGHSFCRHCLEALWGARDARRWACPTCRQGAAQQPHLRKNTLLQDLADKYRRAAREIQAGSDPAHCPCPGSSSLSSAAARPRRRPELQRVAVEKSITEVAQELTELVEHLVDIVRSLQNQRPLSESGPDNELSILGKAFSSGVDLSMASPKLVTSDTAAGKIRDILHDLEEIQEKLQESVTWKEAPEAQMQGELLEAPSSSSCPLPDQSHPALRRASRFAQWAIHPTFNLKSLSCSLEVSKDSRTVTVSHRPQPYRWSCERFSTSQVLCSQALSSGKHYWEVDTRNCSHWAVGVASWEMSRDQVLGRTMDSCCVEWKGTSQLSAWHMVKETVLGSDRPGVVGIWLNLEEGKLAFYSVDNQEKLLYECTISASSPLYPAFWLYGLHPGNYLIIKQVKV

T3: HA-tagged full-length RIG-I (UniProt O95786)
T3 sequence: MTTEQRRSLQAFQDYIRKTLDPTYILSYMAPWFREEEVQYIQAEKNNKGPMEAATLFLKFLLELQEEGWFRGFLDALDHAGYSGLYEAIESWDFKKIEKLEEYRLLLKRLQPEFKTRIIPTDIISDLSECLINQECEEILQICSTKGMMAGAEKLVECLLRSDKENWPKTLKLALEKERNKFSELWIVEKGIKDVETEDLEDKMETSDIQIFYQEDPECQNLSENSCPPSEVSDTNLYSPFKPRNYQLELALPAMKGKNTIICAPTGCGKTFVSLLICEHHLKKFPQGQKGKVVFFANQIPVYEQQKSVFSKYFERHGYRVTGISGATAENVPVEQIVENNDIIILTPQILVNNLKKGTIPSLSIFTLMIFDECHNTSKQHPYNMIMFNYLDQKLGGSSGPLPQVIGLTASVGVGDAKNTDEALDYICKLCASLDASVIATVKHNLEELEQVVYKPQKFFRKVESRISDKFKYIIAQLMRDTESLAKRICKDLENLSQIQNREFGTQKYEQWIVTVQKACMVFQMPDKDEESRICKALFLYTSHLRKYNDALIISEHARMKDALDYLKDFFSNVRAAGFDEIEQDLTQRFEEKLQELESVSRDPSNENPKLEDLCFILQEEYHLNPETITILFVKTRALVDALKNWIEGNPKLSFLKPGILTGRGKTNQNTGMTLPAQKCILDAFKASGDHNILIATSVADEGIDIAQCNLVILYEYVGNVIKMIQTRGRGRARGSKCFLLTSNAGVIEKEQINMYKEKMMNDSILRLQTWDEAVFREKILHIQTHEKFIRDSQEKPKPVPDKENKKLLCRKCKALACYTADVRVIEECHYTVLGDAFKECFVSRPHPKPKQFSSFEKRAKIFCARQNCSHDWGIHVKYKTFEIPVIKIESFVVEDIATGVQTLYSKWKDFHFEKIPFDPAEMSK


Key:
[1] = biological target: T1, RIG-I (retinoic-acid-inducible gene-I), full-length, yeast two-hybrid bait; experiment: two-hybrid; yeast two-hybrid screen of a human fetal kidney cDNA library (Clontech) with full-length RIG-I as bait; β-galactosidase-positive clones
[2] = biological target: Flag-tagged TRIM25 (tripartite motif 25) (UniProt Q14258); experiment: co-IP; HEK293/HEK293T cells co-transfected with Flag- and HA-tagged plasmids; lysis buffer 20 mM Tris pH 7.5, 150 mM NaCl, 1% Triton X-100, 1 mM EDTA; IP with anti-Flag, anti-HA or mouse IgG and protein-A sepharose for 2 h; Western blot
[3] = biological target: T2, Flag-tagged full-length REUL (human); experiment: as above
Flag-tagged TRIM5-α = Flag-tagged TRIM5-α (UniProt Q9C035); experiment: as above
[4] = biological target: T3, HA-tagged full-length RIG-I; experiment: as above

Binder | binding (Flag-tagged TRIM5-α) | binding [4] | other results
REUL (RNF135) C-terminal region Aa 125-432, yeast two-hybrid library clone (domain or fragment, UniProt Q8IUD6-1 125-432) VAVEKSITEVAQELTELVEHLVDIVRSLQNQRPLSESGPDNELSILGKAFSSGVDLSMASPKLVTSDTAAGKIRDILHDLEEIQEKLQESVTWKEAPEAQMQGELLEAPSSSSCPLPDQSHPALRRASRFAQWAIHPTFNLKSLSCSLEVSKDSRTVTVSHRPQPYRWSCERFSTSQVLCSQALSSGKHYWEVDTRNCSHWAVGVASWEMSRDQVLGRTMDSCCVEWKGTSQLSAWHMVKETVLGSDRPGVVGIWLNLEEGKLAFYSVDNQEKLLYECTISASSPLYPAFWLYGLHPGNYLIIKQVKV |  |  | binding [1]: binds
HA-RIG-I mutant carrying the N terminal CARD domain (1-218) (domain or fragment, UniProt O95786 1-218) MTTEQRRSLQAFQDYIRKTLDPTYILSYMAPWFREEEVQYIQAEKNNKGPMEAATLFLKFLLELQEEGWFRGFLDALDHAGYSGLYEAIESWDFKKIEKLEEYRLLLKRLQPEFKTRIIPTDIISDLSECLINQECEEILQICSTKGMMAGAEKLVECLLRSDKENWPKTLKLALEKERNKFSELWIVEKGIKDVETEDLEDKMETSDIQIFYQEDPE | no binding |  | binding [2]: binds; binding [3]: binds
Flag-tagged full-length REUL (protein, UniProt Q8IUD6-1 1-432) MAGLGLGSAVPVWLAEDDLGCIICQGLLDWPATLPCGHSFCRHCLEALWGARDARRWACPTCRQGAAQQPHLRKNTLLQDLADKYRRAAREIQAGSDPAHCPCPGSSSLSSAAARPRRRPELQRVAVEKSITEVAQELTELVEHLVDIVRSLQNQRPLSESGPDNELSILGKAFSSGVDLSMASPKLVTSDTAAGKIRDILHDLEEIQEKLQESVTWKEAPEAQMQGELLEAPSSSSCPLPDQSHPALRRASRFAQWAIHPTFNLKSLSCSLEVSKDSRTVTVSHRPQPYRWSCERFSTSQVLCSQALSSGKHYWEVDTRNCSHWAVGVASWEMSRDQVLGRTMDSCCVEWKGTSQLSAWHMVKETVLGSDRPGVVGIWLNLEEGKLAFYSVDNQEKLLYECTISASSPLYPAFWLYGLHPGNYLIIKQVKV |  | binds | 
Flag-REUL deletion mutant 91-432 (REULΔRING) (domain or fragment, UniProt Q8IUD6-1 91-432) EIQAGSDPAHCPCPGSSSLSSAAARPRRRPELQRVAVEKSITEVAQELTELVEHLVDIVRSLQNQRPLSESGPDNELSILGKAFSSGVDLSMASPKLVTSDTAAGKIRDILHDLEEIQEKLQESVTWKEAPEAQMQGELLEAPSSSSCPLPDQSHPALRRASRFAQWAIHPTFNLKSLSCSLEVSKDSRTVTVSHRPQPYRWSCERFSTSQVLCSQALSSGKHYWEVDTRNCSHWAVGVASWEMSRDQVLGRTMDSCCVEWKGTSQLSAWHMVKETVLGSDRPGVVGIWLNLEEGKLAFYSVDNQEKLLYECTISASSPLYPAFWLYGLHPGNYLIIKQVKV |  | binds | 
Flag-REUL deletion mutant 215-432 (PRY and SPRY domains) (domain or fragment, UniProt Q8IUD6-1 215-432) VTWKEAPEAQMQGELLEAPSSSSCPLPDQSHPALRRASRFAQWAIHPTFNLKSLSCSLEVSKDSRTVTVSHRPQPYRWSCERFSTSQVLCSQALSSGKHYWEVDTRNCSHWAVGVASWEMSRDQVLGRTMDSCCVEWKGTSQLSAWHMVKETVLGSDRPGVVGIWLNLEEGKLAFYSVDNQEKLLYECTISASSPLYPAFWLYGLHPGNYLIIKQVKV |  | binds | 
HA-RIG-I mutant carrying the DexD/H-box helicase domain (219-925), RIG-IΔCARD (domain or fragment, UniProt O95786 219-925) CQNLSENSCPPSEVSDTNLYSPFKPRNYQLELALPAMKGKNTIICAPTGCGKTFVSLLICEHHLKKFPQGQKGKVVFFANQIPVYEQQKSVFSKYFERHGYRVTGISGATAENVPVEQIVENNDIIILTPQILVNNLKKGTIPSLSIFTLMIFDECHNTSKQHPYNMIMFNYLDQKLGGSSGPLPQVIGLTASVGVGDAKNTDEALDYICKLCASLDASVIATVKHNLEELEQVVYKPQKFFRKVESRISDKFKYIIAQLMRDTESLAKRICKDLENLSQIQNREFGTQKYEQWIVTVQKACMVFQMPDKDEESRICKALFLYTSHLRKYNDALIISEHARMKDALDYLKDFFSNVRAAGFDEIEQDLTQRFEEKLQELESVSRDPSNENPKLEDLCFILQEEYHLNPETITILFVKTRALVDALKNWIEGNPKLSFLKPGILTGRGKTNQNTGMTLPAQKCILDAFKASGDHNILIATSVADEGIDIAQCNLVILYEYVGNVIKMIQTRGRGRARGSKCFLLTSNAGVIEKEQINMYKEKMMNDSILRLQTWDEAVFREKILHIQTHEKFIRDSQEKPKPVPDKENKKLLCRKCKALACYTADVRVIEECHYTVLGDAFKECFVSRPHPKPKQFSSFEKRAKIFCARQNCSHDWGIHVKYKTFEIPVIKIESFVVEDIATGVQTLYSKWKDFHFEKIPFDPAEMSK | no binding |  | binding [2]: binds; binding [3]: binds
Flag-REUL RING-finger domain mutant (1-90) (domain or fragment, UniProt Q8IUD6-1 1-90) MAGLGLGSAVPVWLAEDDLGCIICQGLLDWPATLPCGHSFCRHCLEALWGARDARRWACPTCRQGAAQQPHLRKNTLLQDLADKYRRAAR |  | no binding | 
Flag-REUL middle region mutant (91-214) (domain or fragment, UniProt Q8IUD6-1 91-214) EIQAGSDPAHCPCPGSSSLSSAAARPRRRPELQRVAVEKSITEVAQELTELVEHLVDIVRSLQNQRPLSESGPDNELSILGKAFSSGVDLSMASPKLVTSDTAAGKIRDILHDLEEIQEKLQES |  | no binding | 
Flag-REUL mutant carrying the RING-finger and the middle region (1-214) (domain or fragment, UniProt Q8IUD6-1 1-214) MAGLGLGSAVPVWLAEDDLGCIICQGLLDWPATLPCGHSFCRHCLEALWGARDARRWACPTCRQGAAQQPHLRKNTLLQDLADKYRRAAREIQAGSDPAHCPCPGSSSLSSAAARPRRRPELQRVAVEKSITEVAQELTELVEHLVDIVRSLQNQRPLSESGPDNELSILGKAFSSGVDLSMASPKLVTSDTAAGKIRDILHDLEEIQEKLQES |  | no binding | 
HA-tagged full-length RIG-I (protein, UniProt O95786 1-925) MTTEQRRSLQAFQDYIRKTLDPTYILSYMAPWFREEEVQYIQAEKNNKGPMEAATLFLKFLLELQEEGWFRGFLDALDHAGYSGLYEAIESWDFKKIEKLEEYRLLLKRLQPEFKTRIIPTDIISDLSECLINQECEEILQICSTKGMMAGAEKLVECLLRSDKENWPKTLKLALEKERNKFSELWIVEKGIKDVETEDLEDKMETSDIQIFYQEDPECQNLSENSCPPSEVSDTNLYSPFKPRNYQLELALPAMKGKNTIICAPTGCGKTFVSLLICEHHLKKFPQGQKGKVVFFANQIPVYEQQKSVFSKYFERHGYRVTGISGATAENVPVEQIVENNDIIILTPQILVNNLKKGTIPSLSIFTLMIFDECHNTSKQHPYNMIMFNYLDQKLGGSSGPLPQVIGLTASVGVGDAKNTDEALDYICKLCASLDASVIATVKHNLEELEQVVYKPQKFFRKVESRISDKFKYIIAQLMRDTESLAKRICKDLENLSQIQNREFGTQKYEQWIVTVQKACMVFQMPDKDEESRICKALFLYTSHLRKYNDALIISEHARMKDALDYLKDFFSNVRAAGFDEIEQDLTQRFEEKLQELESVSRDPSNENPKLEDLCFILQEEYHLNPETITILFVKTRALVDALKNWIEGNPKLSFLKPGILTGRGKTNQNTGMTLPAQKCILDAFKASGDHNILIATSVADEGIDIAQCNLVILYEYVGNVIKMIQTRGRGRARGSKCFLLTSNAGVIEKEQINMYKEKMMNDSILRLQTWDEAVFREKILHIQTHEKFIRDSQEKPKPVPDKENKKLLCRKCKALACYTADVRVIEECHYTVLGDAFKECFVSRPHPKPKQFSSFEKRAKIFCARQNCSHDWGIHVKYKTFEIPVIKIESFVVEDIATGVQTLYSKWKDFHFEKIPFDPAEMSK | no binding |  | 

Source: paper PMC2684588
